Screen size: about 310,000 compounds; about 14,000 (4.5%) showed an effect of 50% or more. The effect is printed as a negative number. This is one part of the list.
molecular target: human ether-à-go-go-related gene (hERG) potassium channel (human, UniProt Q12809); assay: primary screen, population patch clamp on CHO cells stably expressing hERG
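Also: peak tail current of the secondary pulse compared with the same well before compound.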

Sequence of human ether-à-go-go-related gene (hERG) potassium channel (Q12809 whole entry, looked up): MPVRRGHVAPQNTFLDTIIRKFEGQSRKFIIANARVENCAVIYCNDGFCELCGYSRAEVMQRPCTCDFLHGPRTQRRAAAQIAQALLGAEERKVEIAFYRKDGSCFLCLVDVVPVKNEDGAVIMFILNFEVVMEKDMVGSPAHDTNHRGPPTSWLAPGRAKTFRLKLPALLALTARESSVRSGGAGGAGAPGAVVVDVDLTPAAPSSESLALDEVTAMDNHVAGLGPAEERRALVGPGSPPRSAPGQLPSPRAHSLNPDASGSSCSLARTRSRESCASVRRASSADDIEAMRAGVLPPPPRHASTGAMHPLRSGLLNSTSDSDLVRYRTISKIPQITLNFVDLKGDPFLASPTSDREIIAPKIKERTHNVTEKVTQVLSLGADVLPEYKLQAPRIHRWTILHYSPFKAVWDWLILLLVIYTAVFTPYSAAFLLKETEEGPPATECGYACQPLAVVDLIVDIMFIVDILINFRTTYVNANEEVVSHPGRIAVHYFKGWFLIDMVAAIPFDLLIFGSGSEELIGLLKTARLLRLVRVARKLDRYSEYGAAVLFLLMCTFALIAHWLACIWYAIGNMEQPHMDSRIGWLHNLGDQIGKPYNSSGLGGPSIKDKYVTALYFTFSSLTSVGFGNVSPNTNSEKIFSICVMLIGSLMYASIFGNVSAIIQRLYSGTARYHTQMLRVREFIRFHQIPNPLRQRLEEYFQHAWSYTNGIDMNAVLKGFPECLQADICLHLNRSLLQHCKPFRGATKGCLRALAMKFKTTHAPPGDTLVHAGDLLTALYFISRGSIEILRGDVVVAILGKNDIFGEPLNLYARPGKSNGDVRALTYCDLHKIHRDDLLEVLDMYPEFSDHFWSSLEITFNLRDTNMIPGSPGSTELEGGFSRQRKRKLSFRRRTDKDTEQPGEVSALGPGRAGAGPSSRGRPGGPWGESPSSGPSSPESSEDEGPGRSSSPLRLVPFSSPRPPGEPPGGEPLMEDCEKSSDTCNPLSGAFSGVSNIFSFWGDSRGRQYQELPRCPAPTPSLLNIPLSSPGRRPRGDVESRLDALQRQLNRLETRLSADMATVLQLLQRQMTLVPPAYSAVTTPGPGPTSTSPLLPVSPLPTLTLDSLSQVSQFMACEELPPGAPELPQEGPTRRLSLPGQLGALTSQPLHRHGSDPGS

| Compound | hERG current change (%, negative = inhibition) at 10uM [%] |
| --- | --- |
| COc1ccc(-c2nnc(NC(=O)C3=COCCO3)o2)cc1 | 7.85 |
| Cc1ccc(C(=O)N2CCN(c3ccccc3)CC2)cc1S(=O)(=O)N1CCOCC1 | -16.5 |
| CCCOc1ccc(CNC(=O)Cn2ncc3ccccc32)cc1 | -16.5 |
| C/[N+]([O-])=C\c1cccc(OCCN2CCN(c3ncc(C(F)(F)F)cc3Cl)CC2)c1 | -25.9 |
| O=C(NC(NCC1CCCO1)C(Cl)(Cl)Cl)c1cccc2ccccc12 (centres unmarked) | -18.8 |
| Cc1csc(SCC(=O)Nc2cccc(S(=O)(=O)N3CCOCC3)c2)n1 | -6.13 |
| COc1cc(NC(=S)Nc2cccnc2)cc(OC)c1 | 6.54 |
| CCc1nn(CCCC(=O)NCc2ccccc2C)c(=O)c2cc3occc3n12 | -12.5 |
| CN1CCc2cc(Cl)c(O)cc2[C@@H](c2ccccc2)C1.Cl | -56 |
| COc1cc(OC)c(C2N(c3ccccn3)C(=O)C3CCCN32)cc1OC (centres unmarked) | 13.8 |
| COc1ccc(NC(=O)CSC2CCCCC2)cc1 | -18.4 |
| CCC(CC)NC(=O)Nc1ccc(C)cc1 | 16.3 |
| O=C(N/C(=C/c1ccco1)C(=O)N1CCc2ccccc21)c1ccco1 | -13 |
| CC12CCC(C(=O)Nc3cc(F)ccc3F)(CC1=O)C2(C)C (centres unmarked) | -5.84 |
| COc1ccccc1-c1ccc(NC2CCCCC2)nn1 | -45.9 |
| Cc1ccc(CSc2nc3sc(C)c(C)c3c(=O)n2Cc2ccco2)cc1 | -6.19 |
| O=C(CN(CC1CCCO1)C(=O)CNS(=O)(=O)c1ccc(Cl)cc1)NC1CCCC1 (centres unmarked) | 6.73 |
| Cc1c(C(=O)NCc2ccc3c(c2)OCO3)oc2ccc(S(=O)(=O)N3CCCCC3)cc12 | -2.63 |
| CCN(Cc1ccccc1)C(=O)CC1Oc2ccccc2NC1=O (centres unmarked) | -9.35 |
| S=C(Nc1ccccc1Cl)N(CCCN1CCOCC1)Cc1ccccn1 | -14.2 |
| C=CCn1c(O)c(/C=N/N2CCCCC2c2cccnc2)c(=O)[nH]c1=S (centres unmarked) | -35 |
| COc1ccc(/C=N/NC(=O)CCc2c(C)n[nH]c2C)cc1O | -0.362 |
| Cc1ccc(-c2nnc(NC(=O)C3=COCCO3)o2)c(C)c1 | -7.08 |

| Compound | hERG current change (%, negative = inhibition) at 10uM [%] |
| --- | --- |
| CNC(=S)NNC(=O)Cc1ccc(OC)cc1 | 13.8 |
| Cc1ccc(S(=O)(=O)NC2c3cccc4cccc(c34)C2Sc2nncn2C)cc1 (centres unmarked) | 16.4 |
| COc1ccc(OC)c(NC(=O)C2CCN(C(=O)C3CC(=O)N(c4ccc(C)cc4)C3)CC2)c1 (centres unmarked) | -37.7 |
| O=C(CSc1ncnc2c1sc1ccccc12)Nc1ccc(Br)cc1 | 6.27 |
| O=C(C1=COCCO1)N1CCN(S(=O)(=O)c2cccc(F)c2)CC1 | 11.7 |
| O=C(C1CCN(S(=O)(=O)c2ccccc2)CC1)N1CCC1 | 12.3 |
| C=CCNC(=O)c1csc(-c2ccccc2)n1 | -24.3 |
| O=c1[nH]c2ccc(Cl)cc2c(-c2ccccc2)c1SC(=S)N1CCCCC1 | 11.4 |
| COC(=O)C(C#N)c1nc2ccccc2nc1N1CCCC1 (centres unmarked) | -0.357 |
| COC(=O)CNC(=O)CNC(=O)c1nn(-c2ccc(OC)c(OC)c2)c(=O)c2ccccc12 | 18.1 |
| COc1ccc(-n2nc(C(=O)NCC(=O)NC3CCCCC3)c3ccccc3c2=O)cc1 | 11 |
| Cc1nc2ccc(NS(=O)(=O)c3ccccc3F)cc2s1 | 0.277 |
| CC(C)CCNC(=O)c1onc(CSc2ccc(F)cc2)c1C(=O)NCCC(C)C | 5.82 |
| CN(C)S(=O)(=O)n1cc(/C=C(\NC(=O)c2ccccc2F)C(=O)N2CCOCC2)c2ccccc21 | 18.5 |
| COc1ccc(CCN2C(=O)NC(NC(=O)CC(C)C)(C(F)(F)F)C2=O)cc1OC (centres unmarked) | 18.9 |
| CC(=O)CCC1CC(c2ccc(Cl)cc2)=NO1 (centres unmarked) | -7.96 |
| CC1=C(C(=O)Nc2ccccc2)C(c2ccccn2)n2ncnc2N1 (centres unmarked) | 6.45 |
| Oc1ccccc1N=N/C(=N/Nc1ccccc1O)c1ccccc1 | 8.83 |
| COc1ccc(OC)c(CNCCc2ccc(OC)c(OC)c2)c1.O=C(O)C(=O)O | 5.38 |
| O=C(COC(=O)CNC(=O)c1cccc([N+](=O)[O-])c1)Nc1nc2ccccc2s1 | -4.12 |
| Cc1ccccc1-n1cc(CNC(=O)CCc2nnc(CCc3ccccc3)o2)cn1 | -12.2 |
| Cc1ccc(S(=O)(=O)NC(Cc2c[nH]c3ccccc23)C(=O)O)cc1 (centres unmarked) | -0.633 |
| Cc1ccc(Nc2nc(C(=O)N3CCC(C(=O)NC(C)C)CC3)cs2)cc1 | 2.44 |

| Compound | hERG current change (%, negative = inhibition) at 10uM [%] |
| --- | --- |
| Nc1cc(=O)[nH]c(SCC(=O)NNC(=O)c2ccccc2)n1 | 22.3 |
| Cc1c(Cl)cccc1NC(=S)N1CCc2ccccc2C1 | 10.4 |
| O=C(CSc1nnc(CCCO)n1-c1ccccc1)Nc1nccs1 | 0.786 |
| COc1ccc(C2SCC(=O)N2CC23CC4CC(CC(C4)C2)C3)cc1 (centres unmarked) | 3.15 |
| Cc1ccc(CN2CCCN(Cc3c(F)cccc3Cl)S2(=O)=O)cc1 | 18.2 |
| CCc1ccc(C(=O)Nc2nnn(CC)n2)cc1 | -4.13 |
| Cc1cc(C)cc(C(=O)N2CCC(C(N)=O)CC2)c1 | 2.24 |
| Cc1cccc(NC(=O)N2CCN(Cc3ccc4c(c3)OCO4)CC2)c1C | 12.4 |
| COC(=O)c1cc(-c2ccc(OC)c(OC)c2)n[nH]1 | 14.4 |
| Cc1c(Cl)ccc(S(=O)(=O)NCCN2CCOCC2)c1Cl | -12 |
| COc1ccc(CC(=O)OCC(=O)Nc2cccc(Br)c2)cc1 | -6.54 |
| CCN1CCN(C2CCCCC2NS(=O)(=O)c2ccccc2)CC1 (centres unmarked) | 11.7 |
| CC(C)[C@H](NC(=O)Cc1ccccc1)C(=O)OCc1cc(=O)n2c(n1)sc1ccccc12 | 4.62 |
| COc1ccccc1NS(=O)(=O)c1ccc(C(=O)Nc2ncccc2O)cc1 | 0.815 |
| O=C(NCc1cccnc1)c1cc(-c2cccs2)on1 | -29.9 |
| O=C(Nc1nccs1)c1ccc(-c2cccc([N+](=O)[O-])c2)o1 | 13.8 |
| Cn1c(-c2ccc(F)cc2)cnc1NCc1cccc(F)c1 | -46 |
| Cc1ccc(-c2nc(N/N=C/c3cccnc3)c3ccccc3n2)cc1 | -3.51 |
| CC(C(=O)Nc1ccccc1Br)N1c2cccc3cccc(c23)S1(=O)=O (centres unmarked) | 10.4 |
| CC(Oc1cccc(Cl)c1)C(=O)NCc1ccc(S(N)(=O)=O)cc1 (centres unmarked) | 10.5 |
| Cc1nc2ccccn2c1C(=O)Nc1ccc2c(c1)OCCO2 | 0.029 |
| O=C1c2ccccc2C(=O)C1c1ccc(Br)cc1 | 23 |
| COc1cc(C(CCN2CCN(c3ccccc3)CC2)c2c(OC)cc(OC)c3c(C)cc(=O)oc23)cc(OC)c1OC (centres unmarked) | -6.01 |

| Compound | hERG current change (%, negative = inhibition) at 10uM [%] |
| --- | --- |
| CN1CCN(C(=O)c2ccccc2NC(=O)CCN2C(=O)c3ccccc3C2=O)CC1 | -3.71 |
| Cc1ccccc1NC(=S)NNC(=O)c1cccc(Br)c1 | 10.6 |
| COc1ccccc1Nc1ccc(Nc2ccccc2OC)nn1 | -1.58 |
| O=C(CCN1C(=O)NC2(CCCC2)C1=O)Nc1ccc(-c2nc3ccccc3s2)cc1 | -10.6 |
| Cl.OCCNc1nc(N2CCCCC2)nc2ccccc12 | -58.2 |
| CCc1ccc(NS(=O)(=O)c2ccc(C)c(C(=O)N3CCOCC3)c2)cc1 | 15.7 |
| CCCn1nnc(NC(=S)NC(=O)Cc2ccccc2)n1 | -3.57 |
| O=C(CN(Cc1ccco1)S(=O)(=O)c1cccs1)Nc1ccccc1C(F)(F)F | -32.8 |
| O=C(O)CSCC(=O)N1CCc2c([nH]c3ccccc23)C1C(F)(F)F (centres unmarked) | 20 |
| O=C(C1CCC(CNc2c(N3CCCCC3)c(=O)c2=O)CC1)N1CCCC1 (centres unmarked) | -16.4 |
| CCCOc1ccc(-c2nc(OC)c3ccccc3n2)cc1 | -2.04 |
| O=[N+]([O-])c1cnn(-c2nc(-c3ccccc3)cc(C(F)(F)F)n2)c1 | 8.82 |
| C/C(=N\S(=O)(=O)c1ccc(C)cc1)NC(=S)Nc1ccccc1 | 20.4 |
| COc1cccc(=O)c2c(C)n(CC(=O)c3ccccc3)c(C)c12 | 7.84 |
| O=C1NCCCC1C(=O)NCCN1C(=O)CCC1=O (centres unmarked) | -0.791 |
| CCOC(=O)c1c(NC(=O)/C=C/c2ccc(C)o2)sc(C)c1C | 2.09 |
| COc1ccc(-c2cn(-c3ccc(SC(F)F)cc3)c3[n+]2CCC3)cc1OC.[Br-] | -62.4 |
| O=C(CCNC(=O)c1ccc(Cl)cc1)Nc1ncccc1O | 9.95 |
| O=C(CCc1ccccc1)NNC(=O)C1CCCCC1 | -2.12 |
| O=C(CN1CCN(c2cccc(Cl)c2)CC1)NC1CCCc2ccccc21 (centres unmarked) | 3.17 |

Reference: paper PMC4336329 (PLoS ONE, 2015)
